Several values for one entry are separate records, joined by “and”; a condition that tells them apart may be missing. Identical values can stand only once. The campaign covered roughly 390,000 compounds. About 930 (0.24%) were called active. The inconclusive results got no clear call from the source; some entries with a clear call stand among them for comparison. Calls come from the whole dose curve; as a rule, active = well fitted activation curve with a large enough effect; inconclusive = small, poorly fitted or top-dose-only effect; inactive = no such curve, though single readings can be large or run the other way. Potencies of inconclusive entries are doubtful fits and often do not repeat.
assay: qHTS for Suppressors of FUS Proteinopathy: Primary screen using FUS-linked yeast assay; note: nearly all actives have a fitted effect of over 55% in size;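 for growth rescue (activation): plate controls were DMSO vehicle for no effect and reference control for full effect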; conditions: S. cerevisiae FUS-expressing, OD600, 24 h; Potency: growth rescue; growth rescue (activation): at 76.6 µM (top of the series)
Outline: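 Quantitative HTS measuring growth restoration of FUS-toxic yeast. Galactose-induced cells (OD 0.005) were exposed 24hr at 30C to compounds at several concentrations, then absorbance at 600 nm was recorded.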
Potency is the fitted concentration of half-maximal effect; tags give direction and shape of the fitted curve.

Row | Compound | Potency | growth rescue (activation)
1 | O=[N+]([O-])c1ccccc1-c1ccc(C(=S)N2CCCC2)o1 | inconclusive: 50.1 µM [activator, single point] | 
2 | CC(=O)c1cccc(NC(=O)c2cc(-c3ccc(F)cc3)on2)c1 | inconclusive: 0.891 µM [activator, full curve, poor fit] | 
3 | O=C(NC1CCCCN(Cc2cccc(C(F)(F)F)c2)C1=O)C1C2CC3CC(C2)CC1C3 (configuration not stated) | inconclusive: 28.2 µM [activator, partial curve, poor fit] | 
4 | COc1ccc(-c2nc3ccccc3o2)cc1OC | inactive | 
5 | CN(C)S(=O)(=O)N(CC(=O)NCCSCc1c(F)cccc1Cl)c1ccccc1 | inactive | 
6 | CCCCN(CCCNC(=O)c1cc(Nc2cccc(SC)c2)nc2ccccc12)Cc1ccccc1 | inconclusive: 28.2 µM [activator, single point] | 
7 | COc1ccc(C(C)=O)cc1CC1(C)C(=O)Nc2ccc(OC(F)(F)F)cc21 (configuration not stated) | inconclusive: 25.1 µM [activator, partial curve] | 
8 | CC1(C)SC2c3ccccc3C(=O)N2[C@@H]1C(=O)NC1CCCC1 (some centres not stated) | inactive | 
9 | Cc1ccc(NC(=O)c2cc(S(=O)(=O)N3CCC4(CC3)OCCO4)ccc2F)cc1Cl | inactive | 
10 | O=[N+]([O-])c1ccc(/C=N/Nc2nc(N3CCCCC3)nc(N3CCCCC3)n2)cc1 | inactive | 
11 | CCCc1cc(C(=O)NNC(=S)NC(C)c2ccccc2)cs1 (configuration not stated) | inconclusive: 25.1 µM [activator, partial curve, poor fit] | 
12 | Cc1cccc(-n2c(C)cc(C(=O)C(=O)Nc3ccccc3F)c2C)c1C | inactive | 
13 | O=C(O)c1ccc(NC(=S)NC(=O)c2ccc(-c3ccc(Br)cc3)o2)cc1 | inactive | 
14 | CS(=O)(=O)N1CCN(c2ccccc2NC(=O)C(c2ccccc2)c2ccccc2)CC1 | inconclusive: 22.4 µM [activator, partial curve, poor fit] | 
15 | Cc1ccc(NC(=O)CSc2nc(=O)cc(N)n2-c2ccccc2)cc1 | inconclusive: 20 µM [activator, single point] | 
16 | COc1ccc(CCNC(=O)CN2CCN(S(=O)(=O)c3ccc(Cl)cc3)CC2)cc1OC | inconclusive: 39.8 µM [activator, single point] | 
17 | CCCN(CC(=O)Nc1cccc(Br)c1)CC(=O)Nc1ccc(F)c(F)c1F | inactive | 
18 | Cc1ccc(-n2c(SCc3ccccc3F)nc3[nH]ncc3c2=O)cc1Cl | inconclusive: 28.2 µM [activator, single point] | 
19 | CCN(CC)CCNC(=O)C1CCN(C(=O)c2cnn(-c3ccccc3)c2-n2cccc2)CC1 | inactive | 
20 | COc1ccc2cc(C(=O)C3CCCN(C(=O)c4cnccn4)C3)ccc2c1 (configuration not stated) | inconclusive: 50.1 µM [activator, single point] | 
21 | COc1ccc2c(c1)c(=O)oc1c(C)c(OC(C)C(=O)N[C@@H](Cc3c[nH]c4ccc(O)cc34)C(=O)O)ccc12 (some centres not stated) | inconclusive: 28.2 µM [activator, single point] | 

Row | Compound | Potency | growth rescue (activation)
22 | CN1CCC(N[C@@H](Cc2ccccc2)C(=O)NCC(c2ccccc2)c2ccccc2)(C(=O)NC2CCCCC2)CC1 | inconclusive: 11.2 µM [activator, partial curve, poor fit] | 
23 | Cc1cccc(NS(=O)(=O)c2ccc(C)c(C(=O)NNC(=O)c3csc(N4CCOCC4)n3)c2)c1 | inconclusive: 31.6 µM [activator, single point] | 
24 | CN(C)S(=O)(=O)c1ccc(C(=O)OCC(=O)c2ccc(OC(F)F)cc2OC(F)F)cc1 | inconclusive: 11.2 µM [activator, partial curve, poor fit] | 
25 | COc1ccc(CN2CCc3c(c(=O)n4ncc(C(=O)N5CCN(c6ccccc6OC)CC5)c4n3C)C2)cc1 | inactive | 
26 | Cc1ccccc1CN1CCCCC(NC(=O)c2cccc(C(F)(F)F)c2)C1=O (configuration not stated) | inactive | 
27 | Cc1cc(C)n(-c2nc(Nc3ccccc3C(F)(F)F)nc(-n3nc(C)cc3C)n2)n1 | inconclusive: 7.08 µM [activator, full curve] | 
28 | COc1ccc(NC(=O)CN2C(=O)CCn3nc(-c4cccn4C)cc32)cc1Cl | inconclusive: 25.1 µM [activator, single point] | 
29 | COc1cccc(-c2sc3ccc(OC)cc3c2-c2ccc(OCCN(C)C)cc2)c1 | active: 31.6 µM | 
30 | CCCNC(=O)c1ccc(N2CCC3(CC2)CC(c2ccccc2)=NO3)c(NC(=O)c2cccc(C)c2)c1 | inconclusive: 20 µM [activator, partial curve, poor fit] | 
31 | CCCCNC(=O)c1cc(-c2ccccc2)sc1N | inconclusive: 14.1 µM [activator, partial curve] | 
32 | Cc1ncc(CO)c2c1Oc1nc(-c3ccccc3F)nc(SCC(=O)N(C)c3ccccc3)c1C2 | inconclusive: 7.94 µM [activator, partial curve] | 
33 | O=C1c2ccccc2NC(c2ccc(Cl)cc2Cl)N1Cc1ccccc1 (configuration not stated) | inactive | 
34 | Cn1c(=O)c2[nH]c(SCC(=O)NCCc3ccc(F)cc3)nc2n(C)c1=O | inactive | 
35 | O=C(CSc1nc(-c2ccccc2)c(-c2ccccc2)o1)N1CCCCC1 | inconclusive: 35.5 µM [activator, single point] | 
36 | CCCCCCCCCCOC(=O)Cn1c(COc2ccccc2)[n+](C)c2ccccc21 | inactive | 
37 | COc1cccc(-c2sc3ccccc3c2-c2ccc(OCCN3CCCC3)cc2)c1 | inconclusive: 35.5 µM [activator, single point] | 
38 | CCn1c2ccccc2c2cc(NC(=O)c3ccccc3-c3ccccc3C(=O)O)ccc21 | inconclusive: 25.1 µM [activator, single point] | 
39 | Cc1ccc(S(=O)(=O)N(C)C[C@@H]2OCCCC[C@H](C)Oc3ccc(NC(=O)Nc4ccc(F)cc4)cc3C(=O)N([C@H](C)CO)C[C@H]2C)cc1 | inconclusive: 20 µM [activator, partial curve, poor fit] | 
40 | O=C(O)c1cccc(-n2c(/C=C/c3ccccc3)nc3ccccc3c2=O)c1 | inconclusive: 31.6 µM [activator, partial curve, poor fit] | 
41 | COc1ccccc1-n1c(SCC(=O)Nc2cc(C)on2)nc2c([nH]c3ccccc32)c1=O | inconclusive: 10 µM [activator, partial curve] | 
42 | COc1ccc(C2CC(c3cccc(Br)c3)=NN2c2ccc(S(N)(=O)=O)cc2)cc1 (configuration not stated) | inconclusive: 31.6 µM [activator, single point] | 

Row | Compound | Potency | growth rescue (activation)
43 | Cc1ccc(-c2ccc(/C=N\NC(=O)C3C(=O)NCC3c3ccccc3)o2)cc1Cl (configuration not stated) | inconclusive: 50.1 µM [activator, partial curve, poor fit] | 
44 | CN(C)c1cccc(NC(=O)C2Cc3c(-c4ccc(Cl)cc4)ccnc3O2)c1 (configuration not stated) | inconclusive: 44.7 µM [activator, single point] | 
45 | NC(=O)c1ccccc1N/C=C/C(=O)c1ccco1 | inactive | 
46 | Cn1cc(C(=O)c2ccc(Cl)cc2Cl)cc1C(=O)N/N=C(\N)COc1cccc(C(F)(F)F)c1 | inconclusive: 25.1 µM [activator, single point] | 
47 | COc1ccc(C(C(=O)NC2CCCCC2)N(Cc2ccco2)C(=O)c2snc(C(N)=O)c2N)cc1 (configuration not stated) | inconclusive: 50.1 µM [activator, single point] | 
48 | COc1cc(NC(=O)c2cc(C3CC3)nc3c2c(C)nn3-c2ccccc2)cc(OC)c1 | inconclusive: 35.5 µM [activator, single point] | 
49 | Cc1cccc(N(C)c2nc3ccccc3c3nnc(C)n23)c1 | inactive | 
50 | CC1CCc2c(sc(Nc3nc4c(F)cccc4s3)c2C(N)=O)C1 (configuration not stated) | inconclusive: 31.6 µM [activator, single point] | 
51 | CCS(=O)(=O)N1CCCC(C(=O)NCCOC)C1 (configuration not stated) | inactive | 
52 | CC1(C)OC(=O)C(=NNc2ccccc2)C(=O)O1 | inconclusive: 28.2 µM [activator, partial curve, poor fit] | 
53 | Cc1nnc(N/N=C/c2cc([N+](=O)[O-])c(N3CCC(C)CC3)cc2N2CCC(C)CC2)n1N | inconclusive: 31.6 µM [activator, partial curve, poor fit] | 
54 | Cc1ccc(S(=O)(=O)NNC(=O)C(=O)NNc2ccccn2)cc1 | inconclusive: 50.1 µM [activator, single point] | 
55 | CS(=O)(=O)N1CCc2cc(C(=O)N3CCN(c4cccc(Cl)c4)CC3)ccc21 | inconclusive: 44.7 µM [activator, partial curve, poor fit] | 
56 | Cc1ccc(NC(=O)C2(c3cccs3)CCOCC2)cc1Cl | inactive | 
57 | CCCCNc1c(-c2ccc(OC)c(SC(C)CC)c2)nc2cnccn12 (configuration not stated) | inconclusive: 31.6 µM [activator, single point] | 
58 | CCOC(=O)C1=C(C)NC(C)=C(C(=O)OCC)C1C(=O)OCC(=O)NCCc1ccc(S(N)(=O)=O)cc1 |  | inconclusive: -59.5% [activator]
59 | CCc1ccc(C(=O)c2cn(CC(=O)Nc3ccc(Cl)cc3)c3cc4c(cc3c2=O)OCO4)cc1 | inconclusive: 50.1 µM [activator, single point] | 
60 | COc1cc(C(=O)NC(=S)Nc2nc(-c3ccc(F)cc3)cs2)cc(OC)c1OC | inactive | 
61 | CC(=O)N1CCCc2cc(S(=O)(=O)N3CCCC(C(=O)N4CCN(c5cccc(Cl)c5)CC4)C3)ccc21 (configuration not stated) | inconclusive: 22.4 µM [activator, single point] and inconclusive: 17.8 µM [activator, partial curve, poor fit] | 
62 | CS(=O)(=O)Nc1ccccc1C(=O)OCC(=O)N1CCC(c2ccccc2)=N1 | inconclusive: 31.6 µM [activator, single point] | 
